Experimental findings from the supplement of paper PMC4723716 are described below.

In the assay the test system is Plasmodium falciparum NF54 stage V gametocytes. In words: viability index relative to DMSO control (fraction); higher = less gametocyte killing. Conditions: 2.5 µM, incubation time: 72 h. In short, it runs like this: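 P. falciparum NF54 stage V gametocytes in serum-free screening medium (0.75% gametocytemia, 1.25% hematocrit, 10 µl) were incubated with compound at 2.5 µM in 1,536-well plates for 72 hr at 37°C under low oxygen. Then 3 µl of 2.5 µM MitoTracker Red CMXRos plus 0.13% saponin was added for one to two hours. One field per well was imaged, 20–70 µm2 red particles were counted, and the viability index was the count divided by the plate mean of DMSO wells.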

The mark [1] stands for this setting: library set: Broad Institute DOS.

± gives the uncertainty stated by the source. Over roughly 9,900 compounds, “viability index relative to DMSO control” has its median near 1; the lowest 2% begin near 0.85. The list shows a part of the results.

With `CC(C)NC(=O)Nc1ccc2c(c1)C(=O)N([C@@H](C)CO)C[C@H](C)[C@H](CN(C)C(=O)C1CCCCC1)OCCCC[C@@H](C)O2`, the viability index under setting [1] amounted to 1.017 ± 0.0016.
Same read-out and setting: the figure for `CCC(=O)N1C[C@H](O)COC[C@H]2O[C@@H](CC(=O)NCc3ccc(Oc4ccccc4)cc3)CC[C@@H]21` is 1.09 ± 0.029.
Still for that read-out and setting: next, `O=C(O)C[C@@H]1C[C@@H]2c3cc(NC(=O)Nc4ccc(C(F)(F)F)cc4)ccc3O[C@@H]2[C@@H](CO)O1`: 1.071 ± 0.0017; `CCS(=O)(=O)Nc1ccc2c(c1)C(=O)N(C)[C@@H]1CC[C@H](CC(=O)NCc3ccccc3F)O[C@@H]1CO2`: 1.14 ± 0.043; `C[C@H](NC(=O)C[C@@H]1CC[C@@H]2[C@H](COc3ccc(NS(=O)(=O)c4ccc(Cl)cc4)cc3C(=O)N2C)O1)c1ccccc1`: 1.01 ± 0.035.
Same read-out and setting: the figure for `COc1ccc2c3c([C@@H](CO)NC[C@]33CN(Cc4ccccc4Cl)C3)n(C)c2c1` is 0.961 ± 0.0099; for `C[C@@H]1CCCCO[C@@H](CN(C)S(=O)(=O)c2ccc(F)cc2)[C@@H](C)CN([C@H](C)CO)C(=O)c2cc(NC(=O)CCCCCC(=O)Nc3ccccc3N)ccc2O1` it is 1.02 ± 0.12; for `COc1ccccc1-c1ccc2c(c1)O[C@H](CN(C)CC1CCOCC1)[C@@H](C)CN([C@H](C)CO)S2(=O)=O` it is 0.9788 ± 0.0049.
With `O=C(C1CC1)N1CC2(C1)[C@@H](c1ccccc1)[C@@H](CO)N2S(=O)(=O)c1ccccc1`, the viability index under setting [1] came to 1.06 ± 0.033.
Under setting [1], `CCCNC(=O)Nc1ccc2c(c1)OC[C@H](C)N(S(C)(=O)=O)C[C@@H](C)[C@H](OC)CN(C)C2=O` gave a viability index of 0.9825 ± 0.0052.
Regarding `O=C(NC[C@@H]1[C@@H](c2ccccc2)[C@@H](CO)N1C(=O)Cc1ccncc1)C1CCC1`, the viability index under setting [1] was 1.06 ± 0.058.
For the compound `COc1ccc(S(=O)(=O)Nc2ccc3c(c2)C(=O)N([C@@H](C)CO)C[C@@H](C)[C@H](CN(C)C(=O)Nc2c(C)noc2C)OCCCC[C@@H](C)O3)cc1`, under setting [1], the viability index was determined as 1.17 ± 0.17.
Turning to `CCCc1cn(CC[C@@H]2CC[C@H](NS(=O)(=O)c3ccc(-c4ccccc4)cc3)[C@H](CO)O2)nn1`, where the note is “library set: Broad Institute Blood Stage”, the viability index was found to be 0.909 ± 0.037.
Turning to `COc1cccc(S(=O)(=O)Nc2ccc3c(c2)[C@@H]2C[C@H](CC(=O)NC4CCCCC4)O[C@@H](CO)[C@@H]2O3)c1`, under setting [1], the viability index is 1.066 ± 0.0012.
On the same count and under the same terms, next, `O=C(C1CCOCC1)N1CC(=O)N2[C@H](CO)[C@@H](c3ccc(C#CCc4ccccc4)cc3)[C@@H]2C1`: 1.006 ± 0.0042; `COc1ccc2c3c([nH]c2c1)[C@H](CO)N(Cc1cc(F)ccc1F)C[C@]31CCN(CC1)C(=O)CN(C)C`: 0.93 ± 0.12.
On the same count and under the same terms, next, `CO[C@@H]1CN(C)C(=O)c2cc(NC(=O)C3CC3)ccc2OC[C@H](C)N(Cc2cc(F)ccc2F)C[C@@H]1C`: 0.971 ± 0.069; `CCc1cnc(N2[C@H](C#N)[C@H](c3ccc(C4=CCCCC4)cc3)[C@H]2CO)s1`: 1.04 ± 0.048; `CN1C(=O)c2cc(NS(=O)(=O)c3ccccc3F)ccc2OC[C@@H]2O[C@H](CC(=O)NC3Cc4ccccc4C3)CC[C@@H]21`: 1 ± 0.06.
On to `CO[C@@H]1CN(C)C(=O)c2ccc(NC(=O)C3CCOCC3)cc2OC[C@@H](C)N(Cc2ccc(F)cc2)C[C@H]1C`, for which the viability index under setting [1] was 1.07 ± 0.012.
Still for that read-out and setting: next, `COc1ccc(C#Cc2ccc([C@@H]3[C@@H](CO)N4C(=O)CN(C(=O)NC(C)C)C[C@@H]34)cc2)cc1`: 1.02 ± 0.086; `CO[C@@H]1CN(C)C(=O)c2ccc(NS(C)(=O)=O)cc2OC[C@H](C)N(C(=O)CN(C)C)C[C@H]1C`: 0.905 ± 0.26.
Still for that read-out and setting: the figure for `COc1ccccc1-c1ccc([C@@H]2[C@@H]3CN(Cc4nccs4)C[C@H]2N3)cc1` is 0.9605 ± 0.0013; for `CCC(=O)N1C[C@]2(CN(C2)C(C)=O)c2c([nH]c3cc(OC)ccc23)[C@H]1CO` it is 1.05 ± 0.028.
For `O=C(C[C@@H]1CC[C@H]2[C@@H](COC[C@H](O)CN2C(=O)c2ccncc2)O1)Nc1ccc(-c2ccccc2)cc1`, the viability index under setting [1] was 1.11 ± 0.026.
Turning to `CCS(=O)(=O)N1CC2(C1)[C@H](c1ccccc1)[C@@H](CO)N2Cc1ccc(F)cc1`, the viability index under setting [1] amounted to 1.11 ± 0.056.
Consider `COc1cccc(S(=O)(=O)N2C[C@@H]3N[C@H](C2)[C@@H]3c2ccc(-c3ccccc3F)cc2)c1`, for which the viability index under setting [1] was determined as 1.02 ± 0.072.
Under setting [1], `CCc1cnc(N2[C@H](C#N)[C@@H](c3ccc(-c4cccc(F)c4)cc3)[C@H]2CO)s1` showed a viability index of 1.07 ± 0.011.
On the same count and under the same terms, the figure for `O=C(C[C@H]1C[C@H]2c3cc(NC(=O)c4ccc5c(c4)OCO5)ccc3O[C@H]2[C@@H](CO)O1)NCc1ccc(Oc2ccccc2)cc1` is 1.03 ± 0.033; for `O=C(C[C@H]1CC[C@H](NC(=O)Nc2ccc(C(F)(F)F)cc2)[C@@H](CO)O1)NCc1cccc(F)c1` it is 0.983 ± 0.018; for `CCCC#Cc1ccc([C@H]2[C@@H](CO)N3C(=O)CN(S(=O)(=O)c4ccccc4C)C[C@H]23)cc1` it is 1.025 ± 0.0087.
As to `O=C(C1CCC1)N1C[C@H]2[C@@H](c3ccccc31)[C@@H](CO)N2C(=O)Nc1cccc(F)c1`, the viability index under setting [1] was 0.954 ± 0.017.
Same read-out and setting: the figure for `CCS(=O)(=O)Nc1ccc2c(c1)C(=O)N(C)[C@H]1CC[C@H](CC(=O)N3CCN(C)CC3)O[C@@H]1CO2` is 1.05 ± 0.051.
Same read-out and setting: next, `C/C=C/c1ccc([C@@H]2[C@H]3CNC[C@@H]2N3S(=O)(=O)c2ccccc2C)cc1`: 0.99 ± 0.13; `COc1ccccc1NC(=O)N1CC(=O)N2[C@H](CO)[C@H](c3ccc(C#CC(C)C)cc3)[C@@H]2C1`: 1.06 ± 0.02.
On the same count and under the same terms, the figure for `Cc1noc(C)c1S(=O)(=O)N(C)C[C@H]1OCCCC[C@@H](C)Oc2ccc(NC(=O)CCC(F)(F)F)cc2C(=O)N([C@H](C)CO)C[C@@H]1C` is 1.2 ± 0.03; for `CC(C)NC(=O)N1[C@@H](CO)[C@@H]2c3ccccc3NC[C@@H]21` it is 1.03 ± 0.013.
`N#C[C@H]1[C@H](c2ccccc2)[C@@H](CO)N1S(=O)(=O)c1cccc(F)c1` displayed a viability index under setting [1] of 1.03 ± 0.063.
On the same count and under the same terms, the figure for `COc1ccc(S(=O)(=O)N(C)C[C@H]2OCCCC[C@H](C)Oc3ccc(NC(=O)Cc4ccccc4)cc3C(=O)N([C@@H](C)CO)C[C@H]2C)cc1` is 0.791 ± 0.031; for `C/C=C/c1ccc([C@H]2[C@@H](CO)N[C@@H]2CN(C(=O)c2ccccc2F)C(C)C)cc1` it is 0.964 ± 0.083.
The same measure, in the same setting: next, `CCS(=O)(=O)N1CC(=O)N2[C@@H](CO)[C@H](c3ccc(C#CC4CCCCC4)cc3)[C@@H]2C1`: 1.06 ± 0.032; `N#C[C@H]1[C@H](c2ccccc2)[C@H](CO)N1C(=O)c1ccc2c(c1)OCO2`: 1.09 ± 0.006; `Cc1cccc(S(=O)(=O)N2CC[C@@H]3[C@@H](CO)N(C)c4ccc(Br)cc4[C@@H]32)c1`: 1.096 ± 0.0085.
Regarding `O=C(Nc1ccccc1F)N1CC(=O)N2[C@H](C1)[C@H](c1ccc(-c3cccnc3)cc1)[C@@H]2CO`, under setting [1], the viability index came to 1.01 ± 0.055.
